Data as given in PMC6212790.
The other results are listed elsewhere or left out. At the low end of the ranking the order means little.

Each sequence was assayed against T1, GST-Rok-C97-191 (UniProt O34857) (assay: protein binding microarray). Settings: Rok is a gene silencer of Bacillus subtilis; high values mean tight binding; most listed sequences are background and not binding sites; double strand, one strand shown.
T1 sequence: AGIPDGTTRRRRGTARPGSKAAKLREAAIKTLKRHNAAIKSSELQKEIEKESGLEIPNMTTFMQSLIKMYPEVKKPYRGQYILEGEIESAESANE
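Further: rank score from −0.5 (least bound) to 0.5 (best bound).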

Row | Sequence | binding signal [E-score]
1 | CCGGCGAG | -0.23
2 | CTGGGCAC | -0.294
3 | CAATATAC | 0.243
4 | ACGGCTAA | -0.0504
5 | AGCAACCT | 0.019
6 | CTTTTAGC | 0.14
7 | TAGGAACA | 0.214
8 | TAGAAAAA | 0.297
9 | CCCGTGAC | -0.222
10 | AACACGCT | 0.0618
11 | AAGAGAGC | -0.136
12 | GGCATAAA | -0.0586
13 | TACGCCTA | 0.0237
14 | ACTGGTGC | -0.0059
15 | ATCACTCC | 0.0289
16 | AGTGCCCA | -0.181
17 | AGACGGAG | -0.289
18 | ATGGAATG | 0.149
19 | TAATGGAA | 0.0153
20 | AAAACCCT | -0.0859
21 | CTATCGCC | -0.0268
22 | AGTTAGTG | 0.0734
23 | AGTTAGCG | 0.0457
24 | CCCTCACA | -0.104
25 | AAACTATG | 0.229

Row | Sequence | binding signal [E-score]
26 | ATCGTATA | 0.223
27 | GGGAAGCA | -0.176
28 | GGGACACC | -0.159
29 | CTTGTAGA | 0.123
30 | TACGGACA | 0.0643
31 | AATTTCTG | 0.128
32 | CACTTCAA | -0.0752
33 | AAATGCCC | 0.00515
34 | CGTAAGCC | -0.222
35 | CGCAGAAA | 0.0836
36 | AGTTGGGC | -0.077
37 | AATTGCGT | 0.307
38 | AGAACATC | 0.04
39 | CAATTCTA | 0.287
40 | CCCCACGA | -0.186
41 | AAAAGTCT | 0.0913
42 | AGCACGTG | -0.0267
43 | CGGGCTTA | -0.148
44 | AACGTTAT | 0.182
45 | GAAGTCGA | -0.0325
46 | ATTCGTCG | 0.172
47 | CTATATGC | 0.209
48 | ATACACCA | 0.144
49 | AAAACTTA | 0.256
50 | CGACAAAG | -0.243

Row | Sequence | binding signal [E-score]
51 | CATGCAAC | 0.0519
52 | CACGTGGC | -0.216
53 | CGGCGATC | -0.13
54 | AGACATCC | -0.249
55 | GTATGCAA | -0.0479
56 | ACACCAAC | 0.0171
57 | ACAGCCTC | -0.165
58 | ACCGAGGC | -0.249
59 | ATACGCGC | 0.103
60 | AGCAAAAT | 0.25
61 | GGATTCGA | -0.129
62 | ATTTCCCG | 0.119
63 | CCATGTCC | -0.0296
64 | ACCCGACC | -0.143
65 | ATCCGAAC | -0.127
66 | CAACCATC | -0.0304
67 | CGAAAGCG | -0.0246
68 | CGCTTTTA | 0.0322
69 | CCGAACTC | 0.0371
70 | CCGTGTGC | -0.184
71 | ACAGGACC | 0.0462
72 | GAGTCGTA | 0.0563
73 | AATATCAT | 0.135
74 | CGAGGGCA | -0.364
75 | ACTCCTTA | 0.00627

Row | Sequence | binding signal [E-score]
76 | CAGTAACG | 0.106
77 | CCGAACAA | -0.187
78 | CCCTTCGG | -0.266
79 | GCCTACTA | 0.229
80 | GATGGCGC | -0.182
81 | ATCGCCAC | -0.0423
82 | TATGTTAA | 0.23
83 | CAGTGTTC | -0.0565
84 | ACACGGAT | 0.0931
85 | ACGGCCTG | -0.0541
86 | AACAGACT | -0.134
87 | AGGTAGAT | 0.36
88 | CAGCCGAC | -0.267
89 | AGTTCCCA | -0.0242
90 | ATTATATC | 0.384
91 | AACTTCGT | -0.0253
92 | GCATTCCC | -0.105
93 | TAACGCAA | 0.0874
94 | GCTATTCA | 0.00412
95 | ATAAAGGC | 0.052
96 | GTATCTGA | 0.0498
97 | CCCGTTGC | -0.0267
98 | GATGTTCC | -0.0401
99 | GTGCTAGA | 0.197
100 | ACCGATGG | -0.203

Row | Sequence | binding signal [E-score]
101 | TAGTACTA | 0.402
102 | AATCAAAA | 0.118
103 | AAGCTCGG | -0.161
104 | GAGCCTCC | -0.354
105 | ACTGCTAC | 0.128
106 | ATTATAAA | 0.127
107 | CTCTGATC | -0.0195
108 | ATTAACCG | -0.0569
109 | CAAGTTCG | -0.117
110 | CACTCCCG | 0.0476
111 | CCTCGAGA | -0.0905
112 | CAGCATCG | -0.0978
113 | CGCACTTC | -0.175
114 | GGTACAAA | 0.216
115 | CCGGGTTC | -0.277
116 | GATCTCGC | 0.0478
117 | GTGAGTAA | 0.204
118 | ACTGACAC | -0.0827
119 | AGTCCAAT | -0.0629
120 | AGGCGACT | -0.0944
121 | AGATCCGC | -0.0808
122 | CGATTCAG | -0.0158
123 | ACCCAGGT | -0.124
124 | ATATCTGA | -0.00207
125 | AGGAATTA | 0.141

Row | Sequence | binding signal [E-score]
126 | ATACGACG | 0.172
127 | ACCTCAGG | -0.0604
128 | ATCTACTG | 0.423
129 | CCTAGGTC | -0.196
130 | ATCGACCA | -0.0614
131 | CGCCGCTA | 0.141
132 | ACCATCCT | -0.0227
133 | ATATGCCA | -0.149
134 | CGAGCGCA | -0.109
135 | ATGAAAAG | 0.0153
136 | CGATGCTA | 0.0302
137 | AAAATGTT | 0.122
138 | CATCAAAC | -0.0913
139 | AGCACGAA | 0.0692
140 | CCTCGATA | -0.104
141 | AGCCGACC | -0.0312
142 | AGACACTC | -0.137
143 | ATTATTAA | 0.199
144 | ATAGAGCG | 0.0195
145 | AGGATCCC | -0.0748
146 | ACAGTCTG | -0.241
147 | GCCATACC | -0.158
148 | TACACCCA | 0.145
149 | TGAATCAA | -0.285
150 | GGGTCTAA | -0.233

Row | Sequence | binding signal [E-score]
151 | CACGTAGA | -0.0653
152 | AGTGGGCG | -0.0379
153 | AATTTGAC | 0.137
154 | TTTCAAAA | -0.125
155 | ATCGTGAG | -0.138
156 | ATATATCC | 0.268
157 | CAATATAG | 0.199
158 | GCTACTCA | 0.0267
159 | CGAAAGCA | -0.187
160 | AGCAGCGG | -0.239
161 | TAGTTGCA | 0.241
162 | ATAAACAG | 0.119
163 | CCTTACTC | -0.147
164 | CTGACACA | -0.0388
165 | ACGCTTAA | 0.056
166 | CAGCCGCG | -0.288
167 | GTTCCCGA | -0.0667
168 | GGTCCACA | -0.113
169 | AAGGGTCC | -0.105
170 | ACTAGTGA | 0.279
171 | GATAGTTA | 0.373
172 | AACCGTAA | 0.0748
